These results are taken from patent US10441577B2, “Medicament for treatment of liver cancer” (HELMHOLTZ ZENTRUM FUER INFEKTIONSFORSCHUNG, priority 2011, dated 2019).

The target in one experiment is Mapk14 (Homo sapiens, UniProt Q16539). Particulars: cited from earlier work.
In experiment [1] the test system is human liver cancer cell line (Hep3B). As to the kind of experiment: viable cell count of cultivated human liver cancer cell line (FIG. 9, 13, 17). Format: cell-based. Particulars: for viable cancer cells compared to Sorafenib alone: 12 μM inhibitor with 2 μM Sorafenib, 7 days; for viable cell count, efficacy of combination: inhibitor in combination with Sorafenib; for viable cell count, efficacy of combination / viable cell count: 7 days of treatment; for viable cell count: single agent, 2 μM Sorafenib, 2 μM or 12 μM BIRB. As for the experimental part: (§1) Similar to the assay for BIRB-796, SB 202190 was tested in an in vitro assay of the murine liver cancer cells (Nras Arf−/−) and the human liver cancer cell line (Hep3B).

Another experiment has as its system human liver cancer cells. The note with it: 12 μM inhibitor + 2 μM Sorafenib; 7 days.
Experiment [2] relates to murine liver cancer cells (Nras arf-/-). As to the kind of experiment: viable cell count of cultivated murine liver cancer cells (FIG. 8, 12, 16). Particulars: two days of treatment; for viable cell count, efficacy of combination: inhibitor in combination with Sorafenib; for viable cell count: single agent, 10 μM Sorafenib, 2 μM or 12 μM BIRB. Format: cell-based, mouse. As for the experimental part: In the assay, murine liver cancer cells (Nras arf−/−) were cultivated.
as §1

Experiment [3] has as its system human liver cancer cells (Hep3B). As to the kind of experiment: dead cell count by trypane blue staining (FIG. 11, 15). The note with it: inhibitor in combination with Sorafenib versus either alone and carrier.
Experiment [4] deals with liver cancer induced by NrasG12V. As to the kind of experiment: survival of p19Arf-/- mice with NrasG12V-induced liver cancer expressing shRNA, with or without Sorafenib (FIG. 2). The format is in vivo, mouse. Particulars: Sorafenib with non-specific shRNA (shcontrol), versus shcontrol+carrier. The source says: As a representative of a human patient having liver cancer, a genetically manipulated mouse model (p19^Arf−/−) was generated, in which liver cancers were induced by a constitutive expression of the oncogenic NrasG12V mutant.
The nucleic acid construct for generating liver carcinomas is schematically shown in FIG. 1, containing an expression cassette, wherein the coding sequence for NrasG12V is arranged between a 5′ promoter sequence and a 3′ polyadenylation site, which expression cassette is flanked by two inverted repeat elements (IR). For intrahepatic delivery of the expression cassette, this nucleic acid construct was administered in combination with a nucleic acid construct containing an expression cassette for the transposase sleeping beauty 13 (SB 13) under the control of the constitutive phosphoglycerate kinase promoter (PGK). The mouse model receiving both nucleic acid constructs shown in FIG. 1 was p19^Arf−/−, providing the genetic background sufficient for constitutive generation of murine liver cancer. Nucleic acid constructs were introduced into experimental mice using hydrodynamic tail vein injection.
Mice that were genetically conditioned to develop liver cancer were treated with a pharmaceutical composition containing Sorafenib in a carrier, and carrier alone as a control. […]

In another experiment the test system is liver carcinomas. As to the kind of experiment: survival of mice with liver carcinomas carrying doxycycline-inducible shRNA, with or without Sorafenib (FIG. 7). The note with it: Sorafenib without inactivation of Mapk14 (shMapk14.1095 -DOX or shcontrol +DOX).

UniProt Q16539, sequence (Q16539 whole entry): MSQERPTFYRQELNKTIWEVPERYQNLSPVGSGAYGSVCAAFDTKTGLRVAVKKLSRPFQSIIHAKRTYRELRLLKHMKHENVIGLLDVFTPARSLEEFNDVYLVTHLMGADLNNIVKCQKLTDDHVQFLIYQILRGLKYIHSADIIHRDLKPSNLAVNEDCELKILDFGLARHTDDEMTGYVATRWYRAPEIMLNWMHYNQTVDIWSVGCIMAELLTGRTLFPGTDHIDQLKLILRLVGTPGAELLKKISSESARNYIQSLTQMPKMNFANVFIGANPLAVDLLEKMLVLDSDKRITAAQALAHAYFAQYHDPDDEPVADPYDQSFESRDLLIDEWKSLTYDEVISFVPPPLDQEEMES

For orientation: IC50 means the point on the concentration scale where inhibition reaches its midpoint. In the case of `COc1cc(SC)ccc1C(=O)N1CCC(Cc2ccccc2)CC1` [JX 401, 1-[2-methoxy-4-(methylthio)benzoyl]-4-(phenylmethyl)piperidine], at Mapk14, the IC50 is 32 nM.
For the compound `Fc1ccc(-c2[nH]cc(C3=CCN(CCc4ccccc4)CC3)c2-c2ccncc2)cc1` [R-130823, 2-(4-fluorophenyl)-4-(1-phenethyl-1,2,3,6-tetrahydropyridin-4-yl)-3-(pyridin-4-yl)-1H-pyrrole], the IC50 at Mapk14 is 22 nM.
Consider `NC(=O)c1ccc2[nH]ccc2c1` [SD 169, 1H-Indole-5-carboxamide], for which, on Mapk14, the IC50 is 3.2 nM.
Consider `C[C@]1(C(=O)N2CCOCC2)CO[C@H](c2nc(-c3ccc(F)cc3)c(-c3ccnc(NC4CC4)n3)[nH]2)OC1` [RPR203494, trans-N-cyclopropyl-4-[4-(4-fluorophenyl)-2-[5-methyl-5-(4-morpholinylcarbonyl)-1,3-dioxan-2-yl]-1H-imidazol-5-yl]pyrimidin-2-amine], for which the IC50 on Mapk14 was 9 nM.
Turning to indole-5-carboxamide [SD282], the IC50 at Mapk14 was 1.1 nM.
`Cc1nc(-c2ccccc2)c(-c2ccncc2)o1` [SC-68376, 2-methyl-4-phenyl-5-(4-pyridyl)oxazole]: the IC50 at Mapk14 was 2000 to 5000 nM.
`Cc1ccc(-n2nc(C(C)(C)C)cc2NC(=O)Nc2ccc(OCCN3CCOCC3)c3ccccc23)cc1` [BIRB 796, 1-[5-tert-butyl-2-(4-methylphenyl)pyrazol-3-yl]-3-[4-(2-morpholin-4-ylethoxy)naphthalen-1-yl]urea]: in experiment [1], the “viable cancer cells compared to Sorafenib alone” value is listed as “significant decrease in viable cancer cells”; the “viable cell count, efficacy of combination” value (from here on “viable cell count, efficacy”) is “marked increase in the efficacy over Sorafenib alone”; the viable cell count entry is recorded as “reduction of viable human cancer cells”. The “cell density by crystal violet staining” value with human liver cancer cells is “increases the efficacy of Sorafenib”. In experiment [2], the “viable cell count, efficacy” value is “marked increase in the efficacy over Sorafenib alone” and the viable cell count result was “no significant influence”. In addition, the dead cell count result in experiment [3] was “more prominent”.
With `Oc1ccc(-c2nc(-c3ccc(F)cc3)c(-c3ccncc3)[nH]2)cc1` [SB202190, 4-[4-(4-fluorophenyl)-5-(4-pyridinyl)-1H-imidazol-2-yl]phenol], in experiment [1], the “viable cancer cells compared to Sorafenib alone” value is “significant decrease in viable cancer cells” and the “viable cell count, efficacy” value is reported as “marked increase in the efficacy over Sorafenib alone”. Besides, the “cell density by crystal violet staining” value with human liver cancer cells is reported as “increases the efficacy of Sorafenib”. In experiment [2], the “viable cell count, efficacy” value is listed as “marked increase in the efficacy over Sorafenib alone”. For the same compound, the dead cell count result in experiment [3] was “significantly more effective than Sorafenib or SB202190 alone”.
Turning to `CN(C)C(=O)C(=O)c1cn(C)c2cc(Cl)c(C(=O)N3CCC(Cc4ccc(F)cc4)CC3)cc12` [SX 011], the “viable cell count, efficacy” value in experiment [1] and in experiment [2] was “marked increase in the efficacy over Sorafenib alone” in each case. Further, the IC50 at Mapk14 was 9 nM.
`CNC(=O)c1cc(Oc2ccc(NC(=O)Nc3ccc(Cl)c(C(F)(F)F)c3)cc2)ccn1` [Sorafenib]: the viable cell count result in experiment [1] and in experiment [2] was “decrease of viable cancer cells” in each case. Also, the figures for the survival rate entry (in experiment [4]; in the experiment with liver carcinomas) were “increased survival rate” and “lower survival rate”, respectively.
